# Some of the results follow.
# Columns and labels:
# Assay in all cases: glycan array binding signal (z-score within array); higher = stronger binding
# Conditions in all cases: glycan notation: IUPAC condensed, linker removed
# [1] = target: Fuc(a1-2)Gal(b1-4)GlcNAc(b1-3)Gal(b1-4)GlcNAc(b1-3)Gal(b1-4)GlcNAc
# Method in brief: (§1)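 Arrays were curated from the Consortium for Functional Glycomics database, 3228 in total, and kept only where the protein sequence was available. Binding is expressed as a within-array Z-score. This score was averaged across arrays of the same protein sequence at different concentrations or buffers and across linkers, and negative values can be read as non-binding.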
# [2] = target: Fuc(a1-2)Gal(b1-4)GlcNAc(b1-3)GalNAc
# Method in brief: as §1
# [3] = target: Fuc(a1-2)Gal(b1-4)GlcNAc(b1-3)[Fuc(a1-2)Gal(b1-4)GlcNAc(b1-6)]GalNAc
# Method in brief: as §1
# [4] = target: Fuc(a1-2)Gal(b1-4)GlcNAc(b1-3)[Fuc(a1-3)[Gal(b1-4)]GlcNAc(b1-6)]Gal(b1-4)Glc
# Method in brief: as §1
# [5] = target: Fuc(a1-2)Gal(b1-4)GlcNAc(b1-6)GalNAc
# Method in brief: as §1
# [6] = target: Fuc(a1-2)Gal(b1-4)GlcNAc6S
# Method in brief: as §1
# [7] = target: Fuc(a1-2)Gal(b1-4)[Fuc(a1-3)]GlcNAc
# Method in brief: as §1
# [8] = target: Fuc(a1-2)Gal(b1-4)[Fuc(a1-3)]GlcNAc(b1-2)Man(a1-3)[Fuc(a1-2)Gal(b1-4)[Fuc(a1-3)]GlcNAc(b1-2)Man(a1-6)]Man(b1-4)GlcNAc(b1-4)[Fuc(a1-6)]GlcNAc
# Method in brief: as §1
# [9] = target: Fuc(a1-2)Gal(b1-4)[Fuc(a1-3)]GlcNAc(b1-2)[Fuc(a1-2)Gal(b1-4)[Fuc(a1-3)]GlcNAc(b1-4)]Man(a1-3)[Fuc(a1-2)Gal(b1-4)[Fuc(a1-3)]GlcNAc(b1-2)Man(a1-6)]Man(b1-4)GlcNAc(b1-4)GlcNAc
# Method in brief: as §1
# [10] = target: Fuc(a1-2)Gal(b1-4)[Fuc(a1-3)]GlcNAc(b1-3)Gal(b1-4)[Fuc(a1-3)]GlcNAc
# Method in brief: as §1
# [11] = target: Fuc(a1-2)Gal(b1-4)[Fuc(a1-3)]GlcNAc(b1-3)Gal(b1-4)[Fuc(a1-3)]GlcNAc(b1-3)Gal(b1-4)[Fuc(a1-3)]GlcNAc
# Method in brief: as §1
# [12] = target: Fuc(a1-2)Gal(b1-4)[Fuc(a1-3)]GlcNAc(b1-3)GalNAc
# Method in brief: as §1
# [13] = target: Fuc(a1-2)Gal(b1-4)[Fuc(a1-3)]GlcNAc(b1-3)[Neu5Ac(a2-6)Gal(b1-4)GlcNAc(b1-6)]Gal(b1-4)Glc
# Method in brief: as §1
# [14] = target: Fuc(a1-2)Gal3S(b1-4)GlcNAc
# Method in brief: as §1
# [15] = target: Fuc(a1-2)Gal6S(b1-3)GlcNAc
# Method in brief: as §1
# [16] = target: Fuc(a1-2)Gal6S(b1-3)GlcNAc6S
# Method in brief: as §1
# Fuc(a1-2)Gal6S(b1-4)Glc = target: Fuc(a1-2)Gal6S(b1-4)Glc
# Method in brief: as §1
# [17] = target: Fuc(a1-2)Gal6S(b1-4)Glc6S
# Method in brief: as §1
# Fuc(a1-2)[Gal(a1-3)]Gal = target: Fuc(a1-2)[Gal(a1-3)]Gal
# Method in brief: as §1
# [18] = target: Fuc(a1-2)[Gal(a1-3)]Gal(b1-3)GalNAc
# Method in brief: as §1
# [19] = target: Fuc(a1-2)[Gal(a1-3)]Gal(b1-3)GalNAc(b1-3)Gal(a1-4)Gal(b1-4)Glc
# Method in brief: as §1
# [20] = target: Fuc(a1-2)[Gal(a1-3)]Gal(b1-3)GlcNAc
# Method in brief: as §1
# [21] = target: Fuc(a1-2)[Gal(a1-3)]Gal(b1-3)GlcNAc(b1-2)Man(a1-3)[Fuc(a1-2)[Gal(a1-3)]Gal(b1-3)GlcNAc(b1-2)Man(a1-6)]Man(b1-4)GlcNAc(b1-4)GlcNAc
# Method in brief: as §1
# [22] = target: Fuc(a1-2)[Gal(a1-3)]Gal(b1-3)GlcNAc(b1-2)Man(a1-3)[Fuc(a1-2)[Gal(a1-3)]Gal(b1-3)GlcNAc(b1-2)Man(a1-6)]Man(b1-4)GlcNAc(b1-4)[Fuc(a1-6)]GlcNAc
# Method in brief: as §1
# [23] = target: Fuc(a1-2)[Gal(a1-3)]Gal(b1-3)GlcNAc(b1-3)GalNAc
# Method in brief: as §1
# [24] = target: Fuc(a1-2)[Gal(a1-3)]Gal(b1-3)GlcNAc(b1-6)GalNAc
# Method in brief: as §1
# [25] = target: Fuc(a1-2)[Gal(a1-3)]Gal(b1-4)Glc
# Method in brief: as §1
# [26] = target: Fuc(a1-2)[Gal(a1-3)]Gal(b1-4)GlcNAc
# Method in brief: as §1
# [27] = target: Fuc(a1-2)[Gal(a1-3)]Gal(b1-4)GlcNAc(b1-2)Man
# Method in brief: as §1
# [28] = target: Fuc(a1-2)[Gal(a1-3)]Gal(b1-4)GlcNAc(b1-2)Man(a1-3)[Fuc(a1-2)[Gal(a1-3)]Gal(b1-4)GlcNAc(b1-2)Man(a1-6)]Man(b1-4)GlcNAc(b1-4)GlcNAc
# Method in brief: as §1
binder,measurement,setting,value
PX14367A-bth-493-35-493 (Bacteroides thetaiotaomicron) (protein) VSSDQVAVAGNAERLFNGAWYNLFEYGTTYANIGYRALQCQDDMMASDVVSRPKYGFNSSYQFNDVAIPSDGRTSFAWYLIYKTIDNCNTAISIKGDSEELRQAQGQALALRAFCYLHLVQHYQFTYLKDKDAPCVPIYTEPTTSGTKPKGKSTVAQVYQQIFDDLNLAQDYLTNYVRKGDGQKFKPNTDVVNGLMARAYLLTGQWGEAAKAAEAARKGYSLMTTTAEYEGFNNISNKEWIWGSPQTLSQSDASYNFYYLDATYVGAYSSFMADPHLMDTFVKGDIRLPLFQWMREGYLGYKKFHMRSDDTADLVLMRSAEMYLIEAEAKVRDGVALDQAVAPLNTLRTARGVGNYDVTGKTKEQVIDEILMERRRELWGEGFGITDVLRNQKAVERMALSEDMQKTEVDCWQEGGSFAKRNPLGHWFLNFPDGKAFSANSSYYLYAIPEKEINANPNL,glycan array binding signal (z-score),[1],-0.456
same,glycan array binding signal (z-score),[2],-0.751
same,glycan array binding signal (z-score),[3],0.211
same,glycan array binding signal (z-score),[4],-0.275
same,glycan array binding signal (z-score),[5],0.215
same,glycan array binding signal (z-score),[6],0.139
same,glycan array binding signal (z-score),[7],-0.053
same,glycan array binding signal (z-score),[8],0.458
same,glycan array binding signal (z-score),[9],0.017
same,glycan array binding signal (z-score),[10],0.321
same,glycan array binding signal (z-score),[11],-0.408
same,glycan array binding signal (z-score),[12],-0.195
same,glycan array binding signal (z-score),[13],-0.686
same,glycan array binding signal (z-score),[14],-0.311
same,glycan array binding signal (z-score),[15],-0.51
same,glycan array binding signal (z-score),[16],0.455
same,glycan array binding signal (z-score),Fuc(a1-2)Gal6S(b1-4)Glc,0.487
same,glycan array binding signal (z-score),[17],-0.358
same,glycan array binding signal (z-score),Fuc(a1-2)[Gal(a1-3)]Gal,-0.53
same,glycan array binding signal (z-score),[18],-0.224
same,glycan array binding signal (z-score),[19],-0.58
same,glycan array binding signal (z-score),[20],-0.071
same,glycan array binding signal (z-score),[21],0.575
same,glycan array binding signal (z-score),[22],-0.284
same,glycan array binding signal (z-score),[23],-0.51
same,glycan array binding signal (z-score),[24],-0.44
same,glycan array binding signal (z-score),[25],-0.315
same,glycan array binding signal (z-score),[26],0.28
same,glycan array binding signal (z-score),[27],0.293
same,glycan array binding signal (z-score),[28],1.26

# — the supplement of paper PMC8728848
